Measurements from PubChem BioAssay AID485281 (National Center for Advancing Translational Sciences (NCATS), 2010).
Among all 350,000 compounds or so, about 260 (0.074%) were called active. Inconclusive results, whose numbers are uncertain, are shown with a selection of clear calls. The call rests on the fitted dose curve; in most records, active means well fitted inhibition curve with a large enough effect; inconclusive means small, poorly fitted or top-dose-only effect; inactive means no such curve, though single readings can be large or run the other way. A potency beside an inconclusive call is a rough fit, not a confirmed value.

Molecular target: Ferritin light chain (Equus caballus) (UniProt P02791)
Assay: qHTS Assay for Identification of Novel General Anesthetics; further: nearly all actives have a fitted effect of over 20% in size
Conditions: apoferritin/1-aminoanthracene competitive binding, fluorescence; series mostly up to 77.5 µM
Procedure, shortened: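 Read-out: endpoint 1-AMA fluorescence, excitation 380 nm and emission 535 nm, after compounds sit 10 min at room temperature with 10 uM horse-spleen apoferritin in 50% saturated 1-AMA/PBS. Values come from four-parameter Hill fits.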
Potency means the concentration at half of the fitted maximal effect; tags describe the fitted curve by direction and shape.

UniProt P02791, sequence (P02791 whole entry, looked up): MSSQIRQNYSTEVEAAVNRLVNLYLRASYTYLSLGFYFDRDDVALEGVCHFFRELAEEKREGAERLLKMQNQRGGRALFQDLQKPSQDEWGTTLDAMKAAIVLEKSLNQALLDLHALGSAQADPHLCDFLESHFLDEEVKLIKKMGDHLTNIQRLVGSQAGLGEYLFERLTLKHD

Potency, inactive:
Cc1ccc(NC(=O)CCSc2nnc(Cc3ccccc3)o2)cc1
COc1cccc(NC(=O)CSc2nnc(-c3ccco3)c(-c3ccco3)n2)c1
O=C(O)CC(CCc1ccccc1)OC1OC(CO)C(O)C(O)C1O (stereo not drawn)
CCOC(=O)c1c(NC(=O)CSc2cn(CCNC(=O)c3c(F)cccc3F)c3ccccc23)sc2c1CCC2
C/C(=N\NC(=O)c1ccc(F)cc1)c1cccc(NC(=O)c2cccc(F)c2)c1
O=C(CCCc1ccccc1)NC1CC(=O)N(c2ccc(F)cc2)C1 (stereo not drawn)
CC(=O)NNC(=O)c1cc2c3ccccc3n(C)c2s1
Cc1ccc(N(C)C(CNS(=O)(=O)c2ccccc2)c2ccccc2)cc1 (stereo not drawn)
O=C1NC(=O)c2cc(Nc3ccccc3)c(Nc3ccccc3)cc21
CCOc1ccc(N(C(=O)CNC(=O)c2ccco2)C(C(=O)NC2CCCC2)c2ccco2)cc1 (stereo not drawn)
N#C/C(=C/c1ccccc1Cl)c1nc2ccccc2c(=O)[nH]1
CCCCc1ccc(-c2csc(/C(C#N)=C\c3ccco3)n2)cc1
CCCCc1cc(=O)oc2c(CN3CCCC3)c(O)c(Cl)cc12
COc1ccc(N2C(=O)CSC23C(=O)N(CC(=O)Nc2ccccc2F)c2ccccc23)cc1 (stereo not drawn)
COc1ccc(C2/C=C\C(c3ccc(OC)cc3)N(Cc3ccc(F)cc3)C(=O)C(=O)N2Cc2ccc(F)cc2)cc1 (stereo not drawn)
COCCSc1ccccc1C(=O)Nc1ccc(Cl)cc1
CCCCCOc1ccccc1CN1C(=O)C(=O)c2cc(C)ccc21
COc1cc(CN(C(=O)Nc2cccc(Cl)c2)c2ccccn2)cc(OC)c1OC

Potency, active:
CCCCCOc1ccc(CSC(=N)N)cc1[N+](=O)[O-] 8.91 µM

Potency, inconclusive:
Cc1nnc(SCc2ccc(F)cc2Cl)s1 15.8 µM [inhibitor, partial curve]
O=C(NCCC1CCCC1)c1cccs1 31.6 µM [inhibitor, partial curve]
O=C(Nc1ccc(Cc2ccncc2)cc1)c1ccco1 25.1 µM [inhibitor, partial curve]
Cn1c(SCc2nc(-c3ccc(Br)cc3)no2)nnc1-c1ccco1 25.1 µM [inhibitor, single point]
COc1ccc(C2=NS(=O)(=O)N(C)C(C(=O)Nc3ccc(C)cc3)=C2)cc1 20 µM [inhibitor, partial curve]
COc1ccc(C(=O)CSc2nc(C(C)(C)C)nc3ccccc23)cc1 15.8 µM [inhibitor, partial curve]
O=C(Nc1cccc(Cl)c1)N(CCCN1CCOCC1)Cc1ccccc1F 20 µM [inhibitor, partial curve]
Cc1ccc(Cn2nnc3c(=O)[nH]c(C4CCN(S(=O)(=O)c5ccc(C)cc5)CC4)nc32)cc1 3.98 µM [inhibitor, full curve, poor fit]
Fc1ccc(CSc2nncn2NCc2ccc3c(c2)OCO3)cc1 31.6 µM [inhibitor, partial curve]
Cc1cccc(NC(=O)CSc2nnc(-c3ccco3)c(-c3ccco3)n2)c1C 35.5 µM [inhibitor, partial curve]
O=C(c1cccc(C(=O)N2CCc3ccccc32)n1)N1CCc2ccccc21 25.1 µM [inhibitor, partial curve]
COC(=O)c1ccc(/C=N\NC(=O)CC(=O)NCCc2ccccc2)cc1 3.98 µM [inhibitor, full curve]
C=CCc1cccc(/C=N/NC(=O)CNc2ccccc2)c1O 12.6 µM [inhibitor, partial curve]
CC(c1ccco1)N(C(=O)CSc1ccc(Br)cc1)c1ccccn1 (stereo not drawn) 35.5 µM [inhibitor, single point]
COc1cccc(CC(=O)Nc2ccc(-c3csc(C)n3)cc2)c1 56.2 µM [inhibitor, single point]
O=C(COC(=O)c1ccccn1)Nc1cc(Cl)ccc1Cl 12.6 µM [inhibitor, partial curve]
CC(C)CN(C)Cc1c(C(=O)N2CCc3ccccc3C2)nc2ccc(Cl)cn12 31.6 µM [inhibitor, partial curve]
CC(C)c1ccc(/C=C/C(=O)NC(=S)Nc2ccc(CN3CCOCC3)cc2)cc1 50.1 µM [inhibitor, single point]
CC12COC3(C(N)=O)CC1CCC32C (stereo not drawn) 50.1 µM [inhibitor, single point]
CCCN1C(=O)/C(=C/c2cc(C)n(C)c2C)SC1=Nc1ccc(OC)cc1 35.5 µM [inhibitor, partial curve]
[C-]#[N+]/C(C#N)=C\c1cc(C(C)(C)C)c(O)c(C(C)(C)C)c1 28.2 µM [inhibitor, partial curve, poor fit]
Cc1nc(N2CCCCC2)sc1C(=O)c1cccc([N+](=O)[O-])c1 28.2 µM [inhibitor, partial curve]
Cc1cccc(NC(=O)C(Cc2ccccc2)NS(=O)(=O)c2ccc3c(c2)c(=O)n(C)c(=O)n3C)c1 (stereo not drawn) 50.1 µM [inhibitor, single point]
CC(C)C(=O)N(Cc1cc2ccccc2[nH]c1=O)C(C)(C)C 20 µM [inhibitor, partial curve]
C=C(C)Cn1c(=S)[nH]c2ccccc2c1=O 17.8 µM [inhibitor, partial curve]
CCOC(=O)c1c(NC(=S)Nc2ccccc2)sc2c1CCN(C)C2 12.6 µM [inhibitor, partial curve]
Cc1cc(S(=O)(=O)Nc2ccc(F)cc2)c(C)s1 39.8 µM [inhibitor, single point]
COc1cccc(CNC(=O)Cn2nc(-c3ccc(C)cc3)ccc2=O)c1 5.62 µM [inhibitor, partial curve]
Cc1ccc(NS(=O)(=O)c2ccc(OCC(=O)NCc3ccco3)cc2)cc1 35.5 µM [inhibitor, single point]
CCOC(=O)c1c(NC(=O)C2CCCO2)sc2c1CCC2 (stereo not drawn) 31.6 µM [inhibitor, single point]
CCn1c(O)c(/C=N/n2cnnc2)sc1=S 35.5 µM [inhibitor, single point]
CC(C)Oc1ccc(C(CC(=O)NCc2ccco2)c2ccccc2)cc1 (stereo not drawn) 11.2 µM [inhibitor, partial curve]
CN(O)/C=N/C(=S)Nc1ccc(Cl)cc1Cl 28.2 µM [inhibitor, single point]
CCOC(=O)c1cc(-c2ccccc2)nc2c1c(C)nn2-c1ccccn1 10 µM [inhibitor, partial curve, poor fit]
C=CCN(CC=C)S(=O)(=O)c1ccc(NC(=S)NC(=O)/C=C/c2ccc(C)cc2)cc1 4.47 µM [inhibitor, full curve, poor fit]
O=C(CSCc1ccc(Cl)cc1)Nc1ccc(S(=O)(=O)N2CCOCC2)cc1 20 µM [inhibitor, partial curve]
O=C(CSCc1ccccc1)Nc1cc([N+](=O)[O-])ccc1F 12.6 µM [inhibitor, partial curve]
S=C(Nc1cccc(Cl)c1)NC1CCCCC1 28.2 µM [inhibitor, partial curve]
O=[N+]([O-])c1cc([N+](=O)[O-])c2c(=Nc3ccccc3)n(-c3ccccc3)n(O)c2c1 20 µM [inhibitor, partial curve]
CCN1C(=O)[C@H]2[C@H]3[C@H](O)[C@H](O)C/C(=N\OC[C@@H](C)[C@H](OCc4ccccc4)C(C)C)[C@@H]3CC[C@H]2C1=O 11.2 µM [inhibitor, partial curve]
O=S(=O)(NCCc1ccccn1)c1ccc(F)c(F)c1 35.5 µM [inhibitor, single point]
COc1ccc(NC(=O)CC2COc3ccccc3O2)c(OC)c1 (stereo not drawn) 39.8 µM [inhibitor, single point]
Cc1noc(C)c1-c1ccc2ncnc(NCc3ccc(Br)cc3)c2c1 7.08 µM [inhibitor, full curve, poor fit]
Cc1ccc(Nc2ncnc3sc(C)c(C)c23)cc1C 31.6 µM [inhibitor, single point]
O=C1c2ccccc2N2C(=O)c3ccccc3C2N1Cc1ccco1 (stereo not drawn) 35.5 µM [inhibitor, single point]
CC1CCCC(C)N1C(=O)CSc1nnnn1Cc1ccccc1 (stereo not drawn) 3.55 µM [inhibitor, full curve]
CCOc1ccc(NC(=S)NC(=O)c2cnn(CC)c2)c([N+](=O)[O-])c1 35.5 µM [inhibitor, single point]
O=[N+]([O-])c1ccccc1N/N=C1\CC2CC=CC12 (stereo not drawn) 31.6 µM [inhibitor, partial curve]
Cc1ccc(C(=O)CSc2nnnn2C(C)C)c(C)c1 22.4 µM [inhibitor, single point]
